In all, about 44,000 compounds went through this assay and about 340 (0.77%) were called active. Another 5% or so got no clear call; they are omitted. Calls come from the whole dose curve; as a rule, active = well fitted inhibition curve with a large enough effect; inconclusive = small, poorly fitted or top-dose-only effect; inactive = flat fitted curve, though single readings scatter. This is one part of the list.
Experiment: Acumen qHTS Assay for Inhibitors of the mTORC1 Signaling Pathway in MEF (Tsc2-/-, p53-/-) Cells: Sytravon;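 note: plate controls were DMSO for no effect and rapamycin for full effect; nearly all actives have a fitted effect of over 50% in size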
Details: phospho-rpS6 immunofluorescence/PI, 24 h; series mostly up to 38.3 µM; activity change, negative = inhibition: at the top concentration
Summary of the method: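 Readout is phospho-S6 Alexa 488 signal normalized to PI per well, reported as % active cells with thresholds set from rapamycin (7.5 nM) and DMSO controls. Cells: Tsc2-/-, p53-/- MEFs, 24 hrs compound at 37 C; PI cell number serves as viability.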

Activity change, negative = inhibition, inactive:
CC(C)OCCCNC(=O)c1ccc(CSc2nc3cccnc3n2Cc2ccccc2)cc1 -12%, COc1ccc(-c2nc3ccc(NS(=O)(=O)c4ccc(C)cc4)cc3o2)cc1 2.1%, O=C(OCc1cc(=O)n2nc(-c3cccs3)sc2n1)c1ccc(Cl)cc1 -11%, Cc1ccc(NC(=O)Cn2ncn3c(cc4ccccc43)c2=O)cc1F -2.64%, CCC1=C(c2ccc(C)cc2)S(=O)(=O)N=C1N1CCC(C(=O)Nc2ccccc2F)CC1 -8.3%, Cc1ccc(Cn2c(C(=O)NCc3ccccc3Cl)cc3sccc32)cc1 -13.5%, COC(=O)c1c(SCC(=O)Nc2cc(OC)cc(OC)c2)[nH]c2ccc(C)cc2c1=O -10.6%, Cc1cccc(NC(=O)CSc2nnc3[nH]c(=O)cc(-c4ccccc4)n23)c1C 0.181%, CCOc1ccc(CNCc2c(C(=O)O)c(C)n(Cc3cccc(OC)c3)c2C)cc1OC 0.48%, Cc1cc(CN2CCN(c3ccccc3F)CC2)cs1 -0.908%, O=C(CCC(=O)N1CC2CCCN2c2ccccc21)NCc1ccc(Cl)cc1 (stereo not drawn) -8.62%, CCC1CCC(C(=O)NC(C(=O)Nc2cccc(OC)c2)C(C)C)CC1 (stereo not drawn) -0.561%, Cc1nc2nc(CNC(=O)OC(C)(C)C)nn2c(C)c1CCC(=O)NCc1ccc(F)cc1 -0.815%, COc1ccc(C2Nc3ccccc3-c3cc(C)nn32)cc1OC (stereo not drawn) -4.49%, COC(=O)c1cc2sc(C)cc2n1Cc1cccc(OC)c1 -9.63%, CCOC(=O)c1c(-c2ccc(OC)cc2)oc2ccc(OCc3ccccc3C)cc12 -1.33%, CCOC(=O)c1c(C)[nH]c(C)c1S(=O)(=O)N1CCCC(C(=O)NCc2cccc(C)c2)C1 (stereo not drawn) 8.48%, Cc1cccn2c(=O)c(C(=O)NCc3ccc(F)cc3)c(O)nc12 -3.72%, O=c1cc(-c2ccccc2)nc(SCc2nc(-c3ccccc3Cl)no2)[nH]1 -0.624%, CCOc1cc(C(=O)Nc2cc3c(cc2N2CCOCC2)n(C)c(=O)n3C)cc(OCC)c1OCC -10.3%, Cc1ccccc1CNC(=O)CCCn1c(=O)c2cccn2c2cccnc21 -2.5%, CNc1ncnc2c1cnn2-c1ccc(C)c(C)c1 21.9%, Cc1ccc(N2CC(NC(=O)c3cccs3)CC2=O)cc1C (stereo not drawn) -5.82%, Cc1cccc(NC(=O)c2ccc(-n3cnc4cccnc43)cc2)c1C -1.08%, Oc1ccccc1-c1nc(/C=C/c2ccccc2Cl)nn1-c1ccccc1 -2.35%, CCc1ccc(C(=O)c2cn(CC(=O)Nc3ccc4c(c3)OCO4)c3ccc(OC)cc3c2=O)cc1 -0.264%, Cn1c(C(=O)Nc2cccc(C(F)(F)F)c2)cc2c(=O)n3ccccc3nc21 -11.7%, CCOc1ccc(NC(=O)C2CCC(CNS(=O)(=O)c3ccc(Br)s3)CC2)cc1 (stereo not drawn) -18.2%, COc1ccc(OC)c(CNC(=O)C(C)n2c(C)c3cnn(-c4ccccc4)c(=O)c3c2C)c1 (stereo not drawn) -0.069%, CC1=C(c2ccc(C)c(C)c2)S(=O)(=O)N=C1N1CCC(C(=O)N2CCC(C)CC2)CC1 -7.77%, CCOc1cc(/C=C(\C#N)C(=O)NCC2CCCO2)ccc1O (stereo not drawn) 9.04%, Cc1ccccc1OCc1ccc(-c2nc(C#N)c(NCc3cccnc3)o2)o1 -13.3%, CCOc1ccc(C(=O)c2oc3ccccc3c2NC(=O)Cc2coc3ccc(CC)cc23)cc1 -0.515%, O=C(Cc1ccc(F)cc1)Nc1nnc2n1CCS2 -0.534%, COc1cccc(C(=O)Nc2c(C(=O)N3CCN(c4ccc(F)cc4)CC3)oc3ccccc23)c1 -2.7%, CCc1ccc(CNC(=O)c2c(C)oc3ncnc(N4CCOCC4)c23)cc1 1.4%, COc1cc2ccccc2cc1C(=O)Nc1ccc2oc(-c3ccc(F)cc3Cl)nc2c1 4.42%, CCc1cccc(-n2c(=O)c3cccnc3n2CC(=O)Nc2ccc(F)c(C)c2)c1 5.17%, CCc1ccc2occ(CC(=O)Nc3ccccc3C(F)(F)F)c2c1 2.32%, CC(C)c1ccc(Nc2cc(C(=O)NC3CCCCC3)c3ccccc3n2)cc1 -4.92%, COc1ccccc1NC(=O)CSc1nc(-c2ccc(C(C)(C)C)cc2)c(C#N)c(=O)[nH]1 -1.35%, O=C(NCCn1ccc2ccccc21)c1ccc(Cl)cc1 -17%, CCc1ccccc1OCC(=O)Nc1ccc(S(=O)(=O)Nc2nc(C)cc(C)n2)cc1 -0.91%, CCOc1ccccc1-n1nnc(-c2nsc(NC(=O)c3ccc(C)cc3)n2)c1C -13.2%, CCOC(=O)c1c(-c2ccc(C)cc2)csc1NC(=O)c1cc(=O)c2ccc(C)cc2o1 -13.6%, CSc1cccc(Nc2cc(C(=O)NCCCN(C)c3ccccc3)c3ccccc3n2)c1 -9.67%, COc1ccc(NC(=O)Cn2c(=O)n(Cc3nc(-c4ccccc4)no3)c(=O)c3ccccc32)cc1Cl -2.11%, COc1ccc(/C=C/C(=O)Nc2nc3n(n2)C(c2ccc(F)cc2)C=C(c2ccccc2)N3)cc1 (stereo not drawn) 2.92%, CC(=O)N1CCc2cc(S(=O)(=O)NC(C(=O)Nc3ccc(C)cc3C)C(C)C)ccc21 (stereo not drawn) -23.8%, COc1ccc(NC(=O)C2CCCN(S(=O)(=O)c3ccc(Br)s3)C2)cc1 (stereo not drawn) -6.65%, CCOC(=O)c1c(NC(=O)c2cc(-c3cccc(OC)c3)on2)sc2c1CCCC2 1.38%, COc1ccc(CC(=O)NCC(c2cccs2)S(=O)(=O)c2ccc(C)cc2)cc1 (stereo not drawn) -15.9%, COc1cccc(CNC(=O)Cc2c(C(=O)O)c(C)cn2C)c1 -9.66%, CC(C)c1ccc(NC(=O)CN2C(=O)COc3ccc(S(=O)(=O)N4CCCCCC4)cc32)cc1 -29.1%, CCc1ccc(NC(=O)Cn2c(=O)n(Cc3ccco3)c(=O)c3oc4ccccc4c32)cc1 0.0604%, O=C(NCc1cccs1)c1ccc(CSc2nc3cccnc3n2Cc2ccccc2F)cc1 -0.0611%, Cc1cc(C)c(NC(=O)Cn2cnc3c(oc4ccccc43)c2=O)c(C)c1 11.9%, Cc1oc(-c2ccccc2Cl)nc1CSc1nc2ncccc2[nH]1 -0.922%, COc1ccccc1N1CCN(c2ncnc3onc(-c4cccc(Cl)c4)c23)CC1 -0.552%, O=C(NCc1cccc(Cl)c1)c1ccc2nc(N3CCCCC3)sc2c1 -3.61%, CCOC(=O)c1c(C)n(-c2ccccc2)c2ccc(OC(=O)c3cccc(OC)c3OC)cc12 3.4%, CCc1cccc(N2C(=O)CSC23C(=O)Nc2ccccc23)c1 (stereo not drawn) 0.56%, CCN(CC)C(=O)c1ccc(Nc2nnc(-c3ccc(C)c(S(=O)(=O)NC)c3)c3ccccc23)cc1 12.8%

— PubChem BioAssay AID493208 (National Center for Advancing Translational Sciences (NCATS), 2011)
